Experimental data as given in publication PMC7409549, “A time-resolved interaction analysis of Bem1 reconstructs the flow of Cdc42 during polar growth” (Life Science Alliance, 2020).
These are yes or no findings as the source states them, for the method shown. In cells and extracts the contact can be indirect. Some binding calls cover weakened binding; strength is not graded here. For some assays here: Sequences can lack the tags named with a protein. Values belong to the binder of their own block, whether it stands above or below them.

Columns and labels:
Boi1CRU (S. cerevisiae) = target: T1, Boi1CRU (S. cerevisiae) (UniProt P38041); assay: split reporter; split-ubiquitin (Split-Ub): CRU and Nub fusions co-expressed in yeast cells, spotted in 10-fold serial dilutions on medium with 1 mg/ml 5-FOA and copper, 30°C; growth = interaction
T1 sequence: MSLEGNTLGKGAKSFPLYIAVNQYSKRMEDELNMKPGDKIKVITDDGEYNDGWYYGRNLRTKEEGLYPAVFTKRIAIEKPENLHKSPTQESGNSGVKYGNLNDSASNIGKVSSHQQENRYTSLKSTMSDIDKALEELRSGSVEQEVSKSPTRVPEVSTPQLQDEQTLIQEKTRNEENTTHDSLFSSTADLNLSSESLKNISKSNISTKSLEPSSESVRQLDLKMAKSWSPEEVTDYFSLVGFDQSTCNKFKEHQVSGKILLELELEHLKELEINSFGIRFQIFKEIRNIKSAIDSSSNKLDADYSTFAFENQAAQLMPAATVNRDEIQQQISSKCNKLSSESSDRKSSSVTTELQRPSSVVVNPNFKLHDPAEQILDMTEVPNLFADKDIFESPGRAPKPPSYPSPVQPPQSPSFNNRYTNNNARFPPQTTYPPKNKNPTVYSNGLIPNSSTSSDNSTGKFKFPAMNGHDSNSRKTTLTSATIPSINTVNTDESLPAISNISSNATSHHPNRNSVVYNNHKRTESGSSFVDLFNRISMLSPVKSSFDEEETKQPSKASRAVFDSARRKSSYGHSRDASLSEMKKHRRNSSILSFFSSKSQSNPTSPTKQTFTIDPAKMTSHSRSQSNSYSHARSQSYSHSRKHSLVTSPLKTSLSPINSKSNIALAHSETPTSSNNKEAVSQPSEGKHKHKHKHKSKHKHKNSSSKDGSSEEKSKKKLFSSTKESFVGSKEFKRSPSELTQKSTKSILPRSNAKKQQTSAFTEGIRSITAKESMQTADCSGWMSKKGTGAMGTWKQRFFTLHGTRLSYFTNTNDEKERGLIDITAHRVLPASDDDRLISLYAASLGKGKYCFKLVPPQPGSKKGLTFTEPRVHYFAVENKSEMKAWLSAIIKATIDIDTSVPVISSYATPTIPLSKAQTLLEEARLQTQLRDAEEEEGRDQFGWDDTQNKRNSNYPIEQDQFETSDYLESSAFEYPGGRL

Boi2CRU (S. cerevisiae) = target: T2, Boi2CRU (S. cerevisiae) (UniProt P39969); assay: as above
T2 sequence: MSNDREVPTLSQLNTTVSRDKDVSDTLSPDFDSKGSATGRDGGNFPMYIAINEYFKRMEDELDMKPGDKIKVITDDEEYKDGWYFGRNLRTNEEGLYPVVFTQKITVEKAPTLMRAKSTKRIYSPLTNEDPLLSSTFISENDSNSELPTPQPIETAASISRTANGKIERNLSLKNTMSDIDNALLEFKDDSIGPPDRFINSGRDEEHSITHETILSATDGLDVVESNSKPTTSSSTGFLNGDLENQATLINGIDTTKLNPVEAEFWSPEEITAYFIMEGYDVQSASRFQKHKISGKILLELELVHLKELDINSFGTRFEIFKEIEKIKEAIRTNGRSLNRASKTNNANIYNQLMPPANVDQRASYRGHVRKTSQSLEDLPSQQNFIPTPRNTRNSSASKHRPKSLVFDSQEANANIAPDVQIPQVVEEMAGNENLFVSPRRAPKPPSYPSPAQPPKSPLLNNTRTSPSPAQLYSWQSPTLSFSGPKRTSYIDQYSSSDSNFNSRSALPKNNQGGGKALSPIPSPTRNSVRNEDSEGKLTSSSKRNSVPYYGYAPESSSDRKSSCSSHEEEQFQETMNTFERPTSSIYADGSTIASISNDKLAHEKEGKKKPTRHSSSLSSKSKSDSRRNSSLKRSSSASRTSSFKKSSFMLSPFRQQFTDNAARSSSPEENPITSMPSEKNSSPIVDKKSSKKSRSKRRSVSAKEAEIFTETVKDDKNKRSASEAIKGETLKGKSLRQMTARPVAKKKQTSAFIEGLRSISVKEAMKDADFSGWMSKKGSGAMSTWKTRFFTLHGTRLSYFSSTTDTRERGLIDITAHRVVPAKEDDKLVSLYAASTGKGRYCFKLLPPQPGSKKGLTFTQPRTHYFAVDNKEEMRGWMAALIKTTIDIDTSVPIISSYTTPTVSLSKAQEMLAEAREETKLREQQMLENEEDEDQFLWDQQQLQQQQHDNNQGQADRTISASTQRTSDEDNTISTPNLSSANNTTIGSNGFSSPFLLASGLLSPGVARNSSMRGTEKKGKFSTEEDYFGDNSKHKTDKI

Boi1CCG (S. cerevisiae) [1] = target: T3, Boi1CCG (S. cerevisiae) (UniProt P38041); assay: split reporter; SPLIFF as a9, measured at the bud neck from completion of acto-myosin ring contraction until abscission (PCDIII)
T3 sequence: T1 sequence

Boi1CCG (S. cerevisiae) [2] = target: T3, Boi1CCG (S. cerevisiae); assay: split reporter; SPLIFF as a9, measured at the cell front during bud site assembly and bud growth (PCDII)
[3] = target: T4, GST-Bud6_(1-364) (S. cerevisiae) (UniProt P41697); assay: pull-down; GST fusions immobilised on glutathione sepharose beads from E. coli extracts, incubated 1 h at 4°C with yeast cell extracts; glutathione eluates blotted (anti-GFP or anti-Myc); only the target purified
T4 sequence: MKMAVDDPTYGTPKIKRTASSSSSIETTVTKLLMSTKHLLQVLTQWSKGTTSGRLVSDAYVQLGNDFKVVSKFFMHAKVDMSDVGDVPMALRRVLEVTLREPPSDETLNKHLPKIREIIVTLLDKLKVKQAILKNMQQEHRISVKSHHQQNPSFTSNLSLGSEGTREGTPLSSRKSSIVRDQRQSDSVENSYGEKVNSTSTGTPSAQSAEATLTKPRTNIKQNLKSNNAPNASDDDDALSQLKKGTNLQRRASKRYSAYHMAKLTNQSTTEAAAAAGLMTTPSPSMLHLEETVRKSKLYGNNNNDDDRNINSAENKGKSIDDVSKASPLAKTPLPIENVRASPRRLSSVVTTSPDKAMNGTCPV

[4] = target: T5, GST-Bem1_(140-271) (S. cerevisiae) (UniProt P29366); assay: as above
T5 sequence: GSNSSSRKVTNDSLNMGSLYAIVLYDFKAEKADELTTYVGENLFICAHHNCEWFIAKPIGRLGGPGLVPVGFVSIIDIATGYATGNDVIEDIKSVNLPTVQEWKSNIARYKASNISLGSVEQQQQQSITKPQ

GST-Nbp2 (S. cerevisiae) = target: T6, GST-Nbp2 (S. cerevisiae) (UniProt Q12163); assay: as above
T6 sequence: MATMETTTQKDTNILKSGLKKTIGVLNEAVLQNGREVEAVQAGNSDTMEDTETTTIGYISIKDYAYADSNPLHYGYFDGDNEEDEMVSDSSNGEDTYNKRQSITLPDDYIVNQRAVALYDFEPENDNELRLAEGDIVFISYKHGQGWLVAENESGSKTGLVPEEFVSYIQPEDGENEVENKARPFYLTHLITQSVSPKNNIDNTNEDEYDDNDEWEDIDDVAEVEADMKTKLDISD

binding (Boi1CCG (S. cerevisiae) [2]): binds
B2: Boi1CCG (protein, UniProt P38041 1-980)
chain: T1 sequence
binding (Boi1CCG (S. cerevisiae) [1]): no binding (condition: during PCDIII (abscission))

binding [3]: binds
B3: Boi1-GFP (protein, UniProt P38041 1-980)
chain: T1 sequence

binding [4]: binds
binding (GST-Nbp2 (S. cerevisiae)): binds
B5: Cla4_(1-471)9xMyc (domain or fragment, UniProt P48562 1-471)
chain: MSLSAAANKISDNDFQNIGPAPRPPSSNSQGRTCYNQTQPITKLMSQLDLTSASHLGTSTSKKKSGWVSYKDDGILSFIWQKRYLMLHDSYVALYKNDKQNDDAILKIPLTSIISVSRTQLKQYCFELVRCSDRNSVSSGSSSSLNVSSDSNSKKSIYIATKTESDLHSWLDAIFAKCPLLSGVSSPTNFTHKVHVGFDPETGSFVGMPTNWEKLLKHSRITGEDWNNNSAAVIQVLQFYQEYNGAGNPTNTLDKPQSGETSSSQKSLPNSYNDNKLRNNSVNSKSSSGVSSSMVSQRKTSQPPNTKSPVSLGSGSLPPINTKLPTSQSNIPRHLQNVPNQQYPKMRNGHSPTNGQFPRGPMHPNNSQRSLQQQQQQQQQQKQQHQQYPYHHQGPSPSPSPSPSPLNPYRPHHNMINPYSKQPQSPLSSQSTQNQAIPRYAQNSSPTAAHFQPQRTAPKPPISAPRAPYPS

The next lines start with the binder.

B1: Nub fusion of a C-terminal fragment of Nba1 (residues 256-501) (domain or fragment, UniProt Q08229 256-501)
chain: TTTNEAPKAINPIRSETNDYNPTIPPRSKDRPRSRLFIEEGDGEGDLLTEEILPTPVQPGGHYKNSSQISTVSEQKSESYYSAATSMPPEEETYLTRPLPSTPNEDSRVTSNLKRDDTLKAIHDRANHTSTSTNKQDDDMYEDIIEETPKKTKLKKDTKKKLNKKKSVKELRSFDIDTLNQLLSVTKGTLIGSEFAQLGMKIEEKRALERLVDSLSRLTADMVLDPDRYEEGLKRLDKATKALEGF
binding (Boi1CRU (S. cerevisiae)): binds
binding (Boi2CRU (S. cerevisiae)): binds

B4: Boi2-GFP (protein, UniProt P39969 1-1040)
chain: T2 sequence
binding [3]: binds
